# Laboratory results from the supplement of paper PMC4604168 (melanoma cell lines).
# The other results are listed elsewhere or left out. Most values come without repeats; read them as rough.
# Key:
# Assay in all cases: cell count relative to DMSO control; melanoma cells; higher = more viable cells
# Conditions in all cases: library dose: standard library concentration; 72 h
# A101D = tested on: A101D
# A2058 = tested on: A2058
# A375 = tested on: A375
# 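Further: cells treated in 1,536-well plates, then fixed and DAPI-stained, with nuclei counted from automated high-throughput microscope images.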
Structure (SMILES),cell count (A101D) [%],cell count (A2058) [%],cell count (A375) [%]
"N#CC[C@H](C1CCCC1)n1cc(-c2ncnc3[nH]ccc23)cn1 [ruxolitinib] + O=C(Nc1cccc(Cl)c1)Nc1ncc(CCNc2ncnc3ccsc23)s1 [SNS314] (first compound 5 µM, partner dose 0.004 µM)",69.4,53.3,86.2
"Cc1cc(Nc2cc(N3CCN(C)CC3)nc(Sc3ccc(NC(=O)C4CC4)cc3)n2)n[nH]1 [Tozasertib] + OCCn1cc(-c2cnc3nnn(Cc4ccc5ncccc5c4)c3n2)cn1 [PF04217903] (first compound 0.03 µM, partner dose 5 µM)",74.9,67.6,90.6
"CC[C@]1(O)C[C@H]2CN(CCc3c([nH]c4ccccc34)[C@@](C(=O)OC)(c3cc4c(cc3OC)N(C=O)[C@H]3[C@@](O)(C(=O)OC)[C@H](OC(C)=O)[C@]5(CC)C=CCN6CC[C@]43[C@@H]65)C2)C1 [vincristine] + COCC[n+]1c2c(n(Cc3cnccn3)c1C)C(=O)c1ccccc1C2=O [YM155] (first compound 0.0005 µM, partner dose 0.002 µM)",70,19.9,75.7
"CC[C@]1(O)C[C@H]2CN(CCc3c([nH]c4ccccc34)[C@@](C(=O)OC)(c3cc4c(cc3OC)N(C=O)[C@H]3[C@@](O)(C(=O)OC)[C@H](OC(C)=O)[C@]5(CC)C=CCN6CC[C@]43[C@@H]65)C2)C1 [vincristine] + C[C@]1(O)C[C@@H](c2nc(-c3ccc4ccc(-c5ccccc5)nc4c3)c3c(N)nccn32)C1 [OSI906] (first compound 0.0005 µM, partner dose 2 µM)",66.8,22.4,66.8
"N#CC[C@H](C1CCCC1)n1cc(-c2ncnc3[nH]ccc23)cn1 [ruxolitinib] + Cc1ccc(Nc2nccc(N(C)c3ccc4c(C)n(C)nc4c3)n2)cc1S(N)(=O)=O [Pazopanib] (first compound 5 µM, partner dose 2 µM)",95,78.4,104
"Cc1cc(Nc2cc(N3CCN(C)CC3)nc(Sc3ccc(NC(=O)C4CC4)cc3)n2)n[nH]1 [Tozasertib] + Clc1ccc(Nc2nnc(Cc3ccncc3)c3ccccc23)cc1 [vatalanib] (first compound 0.03 µM, partner dose 10 µM)",83.6,83.4,79.7
"N#CC[C@H](C1CCCC1)n1cc(-c2ncnc3[nH]ccc23)cn1 [ruxolitinib] + O=C(O)c1ccc2c(c1)nc(Nc1cccc(Cl)c1)c1ccncc12 [CX4945] (first compound 5 µM, partner dose 2 µM)",108,74.9,96.2
"Cc1cc(Nc2cc(N3CCN(C)CC3)nc(Sc3ccc(NC(=O)C4CC4)cc3)n2)n[nH]1 [Tozasertib] + Cc1ccc(NC(=O)c2cccc(N(C)C)c2)cc1NC(=O)c1ccc(O)cc1 [ZM336372] (first compound 0.03 µM, partner dose 10 µM)",84.9,80.9,95.4
"N#CC[C@H](C1CCCC1)n1cc(-c2ncnc3[nH]ccc23)cn1 [ruxolitinib] + COc1ccc(C2=N[C@@H](c3ccc(Cl)cc3)[C@@H](c3ccc(Cl)cc3)N2C(=O)N2CCNC(=O)C2)c(OC(C)C)c1 [Nutlin-3] (first compound 5 µM, partner dose 0.5 µM)",90.8,111,123
"CC[C@]1(O)C[C@H]2CN(CCc3c([nH]c4ccccc34)[C@@](C(=O)OC)(c3cc4c(cc3OC)N(C=O)[C@H]3[C@@](O)(C(=O)OC)[C@H](OC(C)=O)[C@]5(CC)C=CCN6CC[C@]43[C@@H]65)C2)C1 [vincristine] + O=C(Nc1cc(C(F)(F)F)cc(C(F)(F)F)c1)c1cc(Cl)ccc1O [IMD0354] (first compound 0.0005 µM, partner dose 0.08 µM)",66.2,73.4,97.6
"Cc1cc(Nc2cc(N3CCN(C)CC3)nc(Sc3ccc(NC(=O)C4CC4)cc3)n2)n[nH]1 [Tozasertib] + O=C(O)c1ccc(-c2c[nH]c3ncc(-c4ccccc4)cc23)cc1C1CCCC1 [GSK650394] (first compound 0.03 µM, partner dose 0.8 µM)",80.4,84.1,92.5
"N#CC[C@H](C1CCCC1)n1cc(-c2ncnc3[nH]ccc23)cn1 [ruxolitinib] + CS(=O)(=O)CCNCc1ccc(-c2ccc3ncnc(Nc4ccc(OCc5cccc(F)c5)c(Cl)c4)c3c2)o1 [lapatinib] (first compound 5 µM, partner dose 4 µM)",92.1,78.7,172
"CC[C@]1(O)C[C@H]2CN(CCc3c([nH]c4ccccc34)[C@@](C(=O)OC)(c3cc4c(cc3OC)N(C=O)[C@H]3[C@@](O)(C(=O)OC)[C@H](OC(C)=O)[C@]5(CC)C=CCN6CC[C@]43[C@@H]65)C2)C1 [vincristine] + COc1cc([C@@H]2c3cc4c(cc3[C@@H](O[C@@H]3O[C@@H]5CO[C@@H](C)O[C@H]5[C@H](O)[C@H]3O)[C@H]3COC(=O)[C@H]23)OCO4)cc(OC)c1O [etoposide] (first compound 0.0005 µM, partner dose 0.1 µM)",69.3,44.1,77.8
"Cc1cc(Nc2cc(N3CCN(C)CC3)nc(Sc3ccc(NC(=O)C4CC4)cc3)n2)n[nH]1 [Tozasertib] + CC(=O)c1c(C)c2cnc(Nc3ccc(N4CCNCC4)cn3)nc2n(C2CCCC2)c1=O [palbociclib] (first compound 0.03 µM, partner dose 0.2 µM)",69.8,108,67.9
"Cc1cc(Nc2cc(N3CCN(C)CC3)nc(Sc3ccc(NC(=O)C4CC4)cc3)n2)n[nH]1 [Tozasertib] + Cn1sc(=O)n(Cc2ccccc2)c1=O [TDZD-8] (first compound 0.03 µM, partner dose 2 µM)",87.3,87,137
"Cc1cc(Nc2cc(N3CCN(C)CC3)nc(Sc3ccc(NC(=O)C4CC4)cc3)n2)n[nH]1 [Tozasertib] + COCC[n+]1c2c(n(Cc3cnccn3)c1C)C(=O)c1ccccc1C2=O [YM155] (first compound 0.03 µM, partner dose 0.002 µM)",69.2,14.6,77.7
"CC[C@]1(O)C[C@H]2CN(CCc3c([nH]c4ccccc34)[C@@](C(=O)OC)(c3cc4c(cc3OC)N(C=O)[C@H]3[C@@](O)(C(=O)OC)[C@H](OC(C)=O)[C@]5(CC)C=CCN6CC[C@]43[C@@H]65)C2)C1 [vincristine] + CS(=O)(=O)c1ccc(C(=O)Nc2ccc(Cl)c(-c3ccccn3)c2)c(Cl)c1 [vismodegib] (first compound 0.0005 µM, partner dose 5 µM)",54.2,69.2,92
"CC[C@]1(O)C[C@H]2CN(CCc3c([nH]c4ccccc34)[C@@](C(=O)OC)(c3cc4c(cc3OC)N(C=O)[C@H]3[C@@](O)(C(=O)OC)[C@H](OC(C)=O)[C@]5(CC)C=CCN6CC[C@]43[C@@H]65)C2)C1 [vincristine] + CN1CCN(c2ccc3nc(-c4c(N)c5c(F)cccc5[nH]c4=O)[nH]c3c2)CC1 [Dovitinib] (first compound 0.0005 µM, partner dose 0.5 µM)",42,13.1,74
"N#CC[C@H](C1CCCC1)n1cc(-c2ncnc3[nH]ccc23)cn1 [ruxolitinib] + Cc1cc(Nc2cc(N3CCN(C)CC3)nc(/C=C/c3ccccc3)n2)n[nH]1 [ENMD2076] (first compound 5 µM, partner dose 0.2 µM)",106,76.6,139
"CC[C@]1(O)C[C@H]2CN(CCc3c([nH]c4ccccc34)[C@@](C(=O)OC)(c3cc4c(cc3OC)N(C=O)[C@H]3[C@@](O)(C(=O)OC)[C@H](OC(C)=O)[C@]5(CC)C=CCN6CC[C@]43[C@@H]65)C2)C1 [vincristine] + CC1(C)NC(=O)N(c2ccc([N+](=O)[O-])c(C(F)(F)F)c2)C1=O [nilutamide] (first compound 0.0005 µM, partner dose 5 µM)",53.5,14.4,87.2
"CC[C@]1(O)C[C@H]2CN(CCc3c([nH]c4ccccc34)[C@@](C(=O)OC)(c3cc4c(cc3OC)N(C=O)[C@H]3[C@@](O)(C(=O)OC)[C@H](OC(C)=O)[C@]5(CC)C=CCN6CC[C@]43[C@@H]65)C2)C1 [vincristine] + CCN(CC)CCNC(=O)c1c(C)[nH]c(/C=C2\C(=O)Nc3ccc(F)cc32)c1C [sunitinib] (first compound 0.0005 µM, partner dose 2 µM)",56.9,69.1,92.7
"Cc1cc(Nc2cc(N3CCN(C)CC3)nc(Sc3ccc(NC(=O)C4CC4)cc3)n2)n[nH]1 [Tozasertib] + CC(C)(C)c1cnc(CSc2cnc(NC(=O)C3CCNCC3)s2)o1 [SNS-032] (first compound 0.03 µM, partner dose 0.05 µM)",84.7,74.8,92.4
"N#CC[C@H](C1CCCC1)n1cc(-c2ncnc3[nH]ccc23)cn1 [ruxolitinib] + CO[C@H]1C[C@@H]2CC[C@@H](C)[C@@](O)(O2)C(=O)C(=O)N2CCCC[C@H]2C(=O)O[C@H]([C@H](C)C[C@@H]2CC[C@@H](OCCO)[C@H](OC)C2)CC(=O)[C@H](C)/C=C(\C)[C@@H](O)[C@@H](OC)C(=O)[C@H](C)C[C@H](C)/C=C/C=C/C=C/1C [everolimus] (first compound 5 µM, partner dose 0.1 µM)",90.7,56.3,91.5
